34 variants from the RNAGym collection of RNA variant scans (doi:10.1093/nar/gkz1192) can be followed below.

The source gives no read counts; variants with many changes may rest on few reads.

The labels stand for the following.
B1: CPEB3 Ribozyme (parent)
chain: UAACAGGGGGCCACAGCAGAAGCGUUCACGUCGCAGCCCCUGUCAGAUUCUGGUGAAUCUGCGAAUUCUGCUGUAUAUCUC

In the series the parent is B1. As to the kind of experiment: self-cleavage, relative activity (ratio to wild type); higher = more cleavage; in vitro, sequencing. The procedure, abridged: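 For each CPEB3 ribozyme variant, relative activity is its cleaved/total read fraction divided by the unmutated ribozyme's. Barcoded error-prone PCR libraries were transcribed by T7 RNA polymerase (5 hours, 37°C) and held in DNase I for 15 min before an EDTA stop, with cleavage occurring throughout. Template-switching reverse transcription and Illumina sequencing were used to read the RNAs. A 5-read minimum applied, and results are the mean of three batches.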
UGACAGGGGGCCACAGCAGAAGCGUUCACGUCGCAGCCCCCGUCAGAUUCUGGUGAAGCUGCGAAUUCUGCUGUAUAUCUC [A2G U41C U58G]: the self-cleavage was 0.23.

Turning to UGACAGGGGGCCACAGCAGAAGCGUUCACGCCGCAGCCCCUGUCAGAUUCUGGUGAAUCUGCGAAUUCUGCAGUAUAUCUC [A2G U31C U72A], the self-cleavage worked out at 0.36.

Take UUACGGGGGGCCACGGCAGAAGCGGUUACGUCCCAGCCCCUGUCAGAUUCUGGUGAAUCUGCGAAUUCUGCUGUACAUCUC [A2U A5G A15G U25G C27U G33C U76C]: the self-cleavage stood at 0.26.

Turning to UUACUGGGGGCCACAGCAGAGGCGUUCACGUCGCAGCCCCUGUCAGCUUCUGGUGAACCUGCGAAUUCUGCCGUAUAUCUC [A2U A5U A21G A47C U58C U72C], the self-cleavage amounted to 0.19.

Regarding UUACUGGGGGCCACAGCAGAAGCGUCCACGUCGCAGCCCCUGACAGAUCCUGGUGAAUCUGCGAAUCCUGCCGUAUAUCUC [A2U A5U U26C U43A U49C U67C U72C], the self-cleavage stood at 0.05.

For UUGCGGGGGGCCGCAGCAGAAGUGUUCACGUCGCAGCCCCUGUCAGAUUCUGGUGAAUCUGCGAAUUCCGCUGUAUACCUC [A2U A3G A5G A13G C23U U69C U78C], the self-cleavage was determined as 0.43.

With UUACAGGGGGCCACAGCAGAAGCGUUCACGUCGCAGCCCCUGUCAGAUUCUGGUGCAUCUGCGAAAUCUGCUGUAUAUCUC [A2U A56C U66A], the self-cleavage turned out to be 0.15.

In the case of UGACAGGGGGCCACAGCAGAAGCGUUCACGUCGCAGCCCCUGACAGAUUCUGGUGAAUCUGCGGAUUCAGCUGUAUAUCUC [A2G U43A A64G U69A], the self-cleavage came to 0.28.

In the case of UGACAGGGGGCCACAGCAGAAGCGUUCACGUCGCAGCCCCUGUCAGAUACUGGGGAGCCUGCGAAUUCUGCAGUAUAUCUC [A2G U49A U54G A57G U58C U72A], the self-cleavage was found to be 0.13.

For the variant UGACAGGGGGCCACAGCAGAAGCGUUCACGUCGCAGCCCCCGUCAGAUUCUGGUGAAUCUGUGAAUUCAGCUGUAUAUCUC [A2G U41C C62U U69A], the self-cleavage stood at 0.2.

Turning to UUACAGGGGGCCACAGCAGAGGCGUUCACGUCGCGGCCCCUGUCAGAUUCUGGUGAAUCUGCGAAUUCUGCUGUAUUUCUC [A2U A21G A35G A77U], the self-cleavage is 1.16.

As for UUACAGGGGGCCACAGCAGAAGCGUUCUCGUCGCAGCCCCUGUCAGAUUCUGGUGGAUCUGCGAAUUCUGCUGUAUAUCUC [A2U A28U A56G], the self-cleavage was 0.51.

Regarding UUACAGGGGGCCACAGCAGGAGCGUUCGCGUCGCGGCCCCUGUCAGAAUCUGGUGAAUCUGCGGAUUCUGCUGUAUAUCUC [A2U A20G A28G A35G U48A A64G], the self-cleavage is 0.05.

Take UUUCAGGGGGCCACAGCAGAAGCGAUCACGUCGCAGCCCCUGUCAGAUUCUGGUGAAUCUGCGAAUUCAGCUGUACAUCUC [A2U A3U U25A U69A U76C]: the self-cleavage was 0.23.

As to UUGCAGGGGGCCACAGCAGAAGCGUUCACGUCGCAGCCCCUGUCAGAUUCUGGCGAGUCUGCGAAUUCUGCUGUAUAUCUC [A2U A3G U54C A57G], the self-cleavage came to 0.78.

For the variant UUACAGGGGGCCACAGCGGAAGCGUUCACGUCGCAGCCCCUGUCAGAUCCUGGCGAAUCUGCGAAUUCUGCUGUAUAUCUC [A2U A18G U49C U54C], the self-cleavage was found to be 0.16.

Regarding UUACAGGGGGCCACGGCAGAAGCGUUCACGUCGCAGCCCCUGUCAGAUUCUGGCGGAUCCGCGAAUUCUGUUGUAUAUCUC [A2U A15G U54C A56G U60C C71U], the self-cleavage is 0.12.

In the case of UUACAGGGGGCCACAGCAGAAGCGUUCACGUCGCUGCCCCUGUCAGAUUCUGGUGAAUCUGCGGAUUCUGCUGUAUAUCUC [A2U A35U A64G], the self-cleavage came to 0.38.

For UGACAGGGGGCCACAGCAGAAGCGUUCACGUCGCAGCCCCUGUCAGAUUCUGGCGAGACUGCGAAUUCUGCUGUAUAUCUC [A2G U54C A57G U58A], the self-cleavage was 0.18.

Turning to UUACAGGGGGCCACGGCAGAAGCGUUCGCGUCGCAGCCCCUGACAGAUUCUGGUGGAUCUGCGAAUGCUGCUGUAUAUCCC [A2U A15G A28G U43A A56G U67G U80C], the self-cleavage was found to be 0.06.

Regarding UUACAGGGGGCCACAGCAGGAGUGUACACGUCGCAGCCCCUGUCAGAUUCUGGUGAAUCUGCGAAUCCUGUUGUAUAUCUC [A2U A20G C23U U26A U67C C71U], the self-cleavage amounted to 0.21.

Turning to UUACAGGGGGCCACAGCGGAAGCGUUCACGUCGCAGCCCCUGACAGAUUCUGGUGAAUCUGCGAAUUCUGCUGUAUAUCUC [A2U A18G U43A], the self-cleavage is 0.83.

On to UUACUGGGGGCCACAGCAGAAGCGUUCACGUCGCAGCCCCUGUCAGAUUCUGGUGAAUCCGCGAAUUCUGCUGUAUAUCUC [A2U A5U U60C], for which the self-cleavage stood at 0.32.

In the case of UUACAGGGGGCCACAGCAGAAGCGUUCACGUCGCGGCCUCUGUCAGAUUCUGGUGAAUCUGCGGAUUCUGCUGUAUAACUC [A2U A35G C39U A64G U78A], the self-cleavage amounted to 1.26.

Consider UUACAGGGGGCCACUGCAGAAGCGUUCACGUCGCAGCCCCUGGCUGGUUCUGGUGAAUCUGCGAAUUCUGCUGUAUACCUC [A2U A15U U43G A45U A47G U78C], for which the self-cleavage was 0.26.

With UGACAGGGGGCCACAGCAGAAGCGUUCACGUCGCAGCCCCCGUUAGAUUCUGGUGAAUCUGCGAAUUCUGCCGUAUAUCCC [A2G U41C C44U U72C U80C], the self-cleavage worked out at 0.58.

Turning to UUACUGGGGGCCACAGCAGAAGCGUUCACGUCGCAGCCCCUGUCAGAUUCUGGUGAAUCUGCGGAUUCUGCUGCAUAUCUC [A2U A5U A64G U74C], the self-cleavage amounted to 1.36.

Take UUACAGGGGGCCACAGCAGAAGCGUUCACGUCGCUGCCCCUGUCAGAUUCUGGUGAAUCUGCGAUUUCUGCUGUAUAUCUC [A2U A35U A65U]: the self-cleavage is 0.19.

With UGACAGGGGGCCACAGCAGAAGCGUUCACGCCGCGGCCCCUGUCUGAUUCUGGUGAAUCUGCGAAUACAGCUGUAUAUCUC [A2G U31C A35G A45U U67A U69A], the self-cleavage is 0.28.

Consider UUACGGGGAGCCACAGCUGAAGCGUUCACGUCGCAGCCCCUGUCAGAUUCCGGUGUAUCUGCGAAUUCUGCUGUAUAUCUC [A2U A5G G9A A18U U51C A56U], for which the self-cleavage is 0.06.

Consider UUACAGGGGGCCUCAGCAGAAGCGUUCACGUCACAGCCCCCGUCAGAUUCUGGUGAAUCUGCGAAUUCUGCUGUAUGUCUC [A2U A13U G33A U41C A77G], for which the self-cleavage came to 0.25.

Take UGACAGGGGGCCACAGCAGAAGCGUUCACGUCGCAGCCCCUGACAGACUCCGGUGAGUCUGCGAAUUCUGCUGUAUAUCUC [A2G U43A U48C U51C A57G]: the self-cleavage was 1.13.

As to UUACAGGGGGCCACAGCAGAAGCGUUCACGUCGCAGCCCCUGUCUGAUUCUGGUGAAUCUGCGAAUUCUGCUGUAUAUCCC [A2U A45U U80C], the self-cleavage is 0.33.

Consider UUACAGGGGGCCACUGCAGAAGCGCUCACGUCGCAGCCCCUGUCAGAUUCUGGUGAAUCUGCGAAUUCUGCUGUAUAUCUC [A2U A15U U25C], for which the self-cleavage was 0.3.
